Assay results reported in the supplement of paper PMC8728848.
The list shows a part of the results.

Legend:
Assay in all cases: glycan array binding signal (z-score within array); higher = stronger binding
Conditions in all cases: glycan notation: IUPAC condensed, linker removed
[1] = molecular target: Neu5Ac(a2-6)Gal(b1-4)GlcNAc(b1-6)GalNAc
Method in brief: (§1)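 The binding signal is a Z-score computed within each array. Data were drawn from 3228 arrays in the Consortium for Functional Glycomics database, restricted to those with a known protein sequence. Scores were averaged over arrays of the same protein sequence at different concentrations or buffers, and over linkers, and negative values can be taken as non-binding.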

[2] = molecular target: Neu5Ac(a2-6)Gal(b1-4)GlcNAc(b1-6)[Gal(b1-3)GlcNAc(b1-3)]Gal(b1-4)Glc
Method in brief: as §1

[3] = molecular target: Neu5Ac(a2-6)Gal(b1-4)GlcNAc(b1-6)[Gal(b1-3)]GalNAc
Method in brief: as §1

[4] = molecular target: Neu5Ac(a2-6)Gal(b1-4)GlcNAc6S
Method in brief: as §1

[5] = molecular target: Neu5Ac(a2-6)GalNAc
Method in brief: as §1

[6] = molecular target: Neu5Ac(a2-6)GalNAc(b1-4)GlcNAc
Method in brief: as §1

[7] = molecular target: Neu5Ac(a2-6)GalNAc(b1-4)GlcNAc6S
Method in brief: as §1

[8] = molecular target: Neu5Ac(a2-6)GlcNAc(b1-4)GlcNAc
Method in brief: as §1

[9] = molecular target: Neu5Ac(a2-6)GlcNAc(b1-4)GlcNAc(b1-4)GlcNAc
Method in brief: as §1

[10] = molecular target: Neu5Ac(a2-8)Neu5Ac
Method in brief: as §1

[11] = molecular target: Neu5Ac(a2-8)Neu5Ac(a2-3)Gal(b1-3)GalNAc(b1-4)[Neu5Ac(a2-3)]Gal(b1-4)Glc
Method in brief: as §1

[12] = molecular target: Neu5Ac(a2-8)Neu5Ac(a2-3)Gal(b1-3)GalNAc(b1-4)[Neu5Ac(a2-8)Neu5Ac(a2-3)]Gal(b1-4)Glc
Method in brief: as §1

[13] = molecular target: Neu5Ac(a2-8)Neu5Ac(a2-3)Gal(b1-4)Glc
Method in brief: as §1

[14] = molecular target: Neu5Ac(a2-8)Neu5Ac(a2-3)Gal(b1-4)GlcNAc
Method in brief: as §1

[15] = molecular target: Neu5Ac(a2-8)Neu5Ac(a2-3)[Gal(b1-3)GalNAc(b1-4)]Gal(b1-4)Glc
Method in brief: as §1

[16] = molecular target: Neu5Ac(a2-8)Neu5Ac(a2-3)[GalNAc(b1-4)]Gal(b1-4)Glc
Method in brief: as §1

[17] = molecular target: Neu5Ac(a2-8)Neu5Ac(a2-8)Neu5Ac
Method in brief: as §1

[18] = molecular target: Neu5Ac(a2-8)Neu5Ac(a2-8)Neu5Ac(a2-3)Gal(b1-4)Glc
Method in brief: as §1

[19] = molecular target: Neu5Ac(a2-8)Neu5Ac(a2-8)Neu5Ac(a2-3)[Gal(b1-3)GalNAc(b1-4)]Gal(b1-4)Glc
Method in brief: as §1

[20] = molecular target: Neu5Ac(a2-8)Neu5Ac(a2-8)Neu5Ac(a2-3)[GalNAc(b1-4)]Gal(b1-4)Glc
Method in brief: as §1

[21] = molecular target: Neu5Ac(a2-8)Neu5Ac(a2-8)Neu5Ac(a2-8)Neu5Ac(a2-3)[GalNAc(b1-4)]Gal(b1-4)Glc
Method in brief: as §1

[22] = molecular target: Neu5Ac(a2-8)Neu5Gc(a2-3)Gal(b1-4)GlcNAc
Method in brief: as §1

[23] = molecular target: Neu5Ac(b2-6)Gal(b1-4)GlcNAc
Method in brief: as §1

[24] = molecular target: Neu5Ac(b2-6)GalNAc
Method in brief: as §1

[25] = molecular target: Neu5Ac9Ac(a2-3)Gal(b1-3)GlcNAc
Method in brief: as §1

[26] = molecular target: Neu5Ac9Ac(a2-3)Gal(b1-4)GlcNAc
Method in brief: as §1

[27] = molecular target: Neu5Ac9Ac(a2-6)Gal(b1-4)GlcNAc
Method in brief: as §1

[28] = molecular target: Neu5Gc(a2-3)Gal(b1-3)GlcNAc
Method in brief: as §1

[29] = molecular target: Neu5Gc(a2-3)Gal(b1-3)[Fuc(a1-4)]GlcNAc
Method in brief: as §1

[30] = molecular target: Neu5Gc(a2-3)Gal(b1-4)Glc
Method in brief: as §1

[31] = molecular target: Neu5Gc(a2-3)Gal(b1-4)GlcNAc
Method in brief: as §1

[32] = molecular target: Neu5Gc(a2-3)Gal(b1-4)GlcNAc(b1-3)Gal(b1-4)GlcNAc(b1-2)Man(a1-3)[Neu5Gc(a2-3)Gal(b1-4)GlcNAc(b1-3)Gal(b1-4)GlcNAc(b1-2)Man(a1-6)]Man(b1-4)GlcNAc(b1-4)GlcNAc
Method in brief: as §1

[33] = molecular target: Neu5Gc(a2-3)Gal(b1-4)[Fuc(a1-3)]GlcNAc
Method in brief: as §1

[34] = molecular target: Neu5Gc(a2-6)Gal(b1-4)GlcNAc
Method in brief: as §1

[35] = molecular target: Neu5Gc(a2-6)GalNAc
Method in brief: as §1

[36] = molecular target: Neu5Gc(a2-8)Neu5Ac(a2-3)Gal(b1-4)GlcNAc
Method in brief: as §1

[37] = molecular target: Neu5Gc(a2-8)Neu5Gc(a2-3)Gal(b1-4)GlcNAc
Method in brief: as §1

[38] = molecular target: Neu5Gc(a2-8)Neu5Gc(a2-3)Gal(b1-4)GlcNAc(b1-3)Gal(b1-4)GlcNAc
Method in brief: as §1

B1: PX14379A-bvu-539-28-539 (Bacteroides vulgatus) (protein)
chain: EPYSEIIEEDYVPTEADEIALLATTYSQLRFVMDWYGLFDLQEESGDVIVTPTRPNGWDDGGTYKQMHKHTWDNQQGQPQSIWDYCYKGIANANKILKRADEGFFTEESKPKVVAEVKGVRALWYSILCDTHGNIPIQTSFSEEVPVQSTRKQVFDFIINELKEVMPNLPTEVNKSTYGRLTQWGAKCLMARMYLNAGVYTGTPMWNECLEQCNDIINSGLFSLETNYTDIFKTENSGCVETIFAIPYDEVYNEGDNNGPVFGAHMKFLSSNSRKVFNMQTTPWGGSAANPQFINSYDPDDMRLKYTWLQGDQYSPDGVLITTFPNKLPSIYKTDTDDGYRVGKYEIKVGAKSLLSNDFPYFRYTEVLLMKAECLLRLGQNETEAAHIVSQIRERAFRESAHPEKATVDAAWLKGDTHINYGTLDEKGQIDDAGNTEVVELGGLYDEWGWEFAAEARRRTDMIRFGTYQKKSWFNHTPTANDLNGNSILFPIHLDHLNTNPNLQQNPGYAGK
Question: B1 was tested. Which “glycan array binding signal (z-score)” value [1] did it give?
Answer: The value was -0.176.

Question: What about the “glycan array binding signal (z-score)” value [2] of the same binder?
Answer: Its value is -0.344.

Question: What about the “glycan array binding signal (z-score)” value [3] of the same binder?
Answer: The value was -0.4.

Question: What about the “glycan array binding signal (z-score)” value [4] of the same binder?
Answer: The value was -0.432.

Question: And the “glycan array binding signal (z-score)” value [5]?
Answer: The value was -0.471.

Question: And the “glycan array binding signal (z-score)” value [6]?
Answer: Its value is -0.211.

Question: And the “glycan array binding signal (z-score)” value [7]?
Answer: The value was -0.014.

Question: And the “glycan array binding signal (z-score)” value [8]?
Answer: Its value is -0.56.

Question: What about the “glycan array binding signal (z-score)” value [9] of the same binder?
Answer: The value was -0.16.

Question: And the “glycan array binding signal (z-score)” value [10]?
Answer: The value was -0.351.

Question: What about the “glycan array binding signal (z-score)” value [11] of the same binder?
Answer: Its value is -0.095.

Question: And the “glycan array binding signal (z-score)” value [12]?
Answer: Its value is -0.485.

Question: And the “glycan array binding signal (z-score)” value [13]?
Answer: The value was -0.24.

Question: What about the “glycan array binding signal (z-score)” value [14] of the same binder?
Answer: Its value is -0.347.

Question: And the “glycan array binding signal (z-score)” value [15]?
Answer: The value was -0.107.

Question: What about the “glycan array binding signal (z-score)” value [16] of the same binder?
Answer: The value was -0.384.

Question: And the “glycan array binding signal (z-score)” value [17]?
Answer: Its value is -0.382.

Question: What about the “glycan array binding signal (z-score)” value [18] of the same binder?
Answer: Its value is -0.32.

Question: And the “glycan array binding signal (z-score)” value [19]?
Answer: The value was -0.208.

Question: And the “glycan array binding signal (z-score)” value [20]?
Answer: The value was -0.358.

Question: What about the “glycan array binding signal (z-score)” value [21] of the same binder?
Answer: Its value is 1.54.

Question: And the “glycan array binding signal (z-score)” value [22]?
Answer: The value was 7.1.

Question: What about the “glycan array binding signal (z-score)” value [23] of the same binder?
Answer: The value was -0.246.

Question: And the “glycan array binding signal (z-score)” value [24]?
Answer: The value was -0.457.

Question: What about the “glycan array binding signal (z-score)” value [25] of the same binder?
Answer: Its value is 0.023.

Question: And the “glycan array binding signal (z-score)” value [26]?
Answer: The value was 0.203.

Question: And the “glycan array binding signal (z-score)” value [27]?
Answer: The value was -0.431.

Question: What about the “glycan array binding signal (z-score)” value [28] of the same binder?
Answer: Its value is -0.228.

Question: And the “glycan array binding signal (z-score)” value [29]?
Answer: Its value is -0.268.

Question: And the “glycan array binding signal (z-score)” value [30]?
Answer: The value was -0.175.

Question: And the “glycan array binding signal (z-score)” value [31]?
Answer: Its value is 0.037.

Question: And the “glycan array binding signal (z-score)” value [32]?
Answer: The value was 0.563.

Question: And the “glycan array binding signal (z-score)” value [33]?
Answer: Its value is -0.059.

Question: And the “glycan array binding signal (z-score)” value [34]?
Answer: The value was -0.252.

Question: What about the “glycan array binding signal (z-score)” value [35] of the same binder?
Answer: Its value is -0.242.

Question: And the “glycan array binding signal (z-score)” value [36]?
Answer: The value was -0.283.

Question: What about the “glycan array binding signal (z-score)” value [37] of the same binder?
Answer: The value was -0.194.

Question: What about the “glycan array binding signal (z-score)” value [38] of the same binder?
Answer: The value was -0.314.
